# The list shows a part of the results.
# B1: SAG3 (Toxoplasma gondii), Q9BJ39 (protein)
# chain: MQLWRRRAAGPASLGRQSLPLGCFFAAFGLCVLSAILGTGERGLFVAAGNSRRKITYFGTLTQKAPNWYRCSSTRAKEEVVGHVTLNKEHPDMTIECVDDGLGGEFLPLEGARSSYPRVCHIDAKDQDDCERNRGFLTDYIPGAKQYWYKIEKVEQNGEQSVLYKFTVPWILLPPAKQRYKVGCRYPNHEYCFVEVTVEPTPPMVEGKRVTCGYSESGPVNLEVDLSKNANFIEIRCGEQHHPQPSTYTLQYCSGDSVDPQKCSPQSLTNIFYDYSSSWWKGKLNGPDGATLTIPPGGFPEEDKSFLVGCSLTVDGPPFCNVKVRVAGNPRKWERGGGGHPGSGGLQPGTDGETQAGTGSSAGASSRMASVALAFLLGLLVHVAA
# Experiments:
# Experiment in all cases: glycan array binding signal (z-score within array); higher = stronger binding
# Settings in all cases: glycan notation: IUPAC condensed, linker removed
# [1] = molecular target: Gal(b1-3)[Fuc(a1-4)]GlcNAc
# Method in brief: (§1)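 Glycan array data were curated from 3228 arrays in the Consortium for Functional Glycomics database and kept only where the protein sequence was available. Glycan names were converted to IUPAC-condensed notation, and columns mapping to the same glycan were averaged. The binding signal is a within-array Z-score, averaged across arrays of the same protein sequence at different concentrations or buffers and across linkers. Negative Z-scores can be read as non-binding.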
# [2] = molecular target: Gal(b1-3)[Fuc(a1-4)]GlcNAc(b1-2)Man(a1-3)[Gal(b1-3)[Fuc(a1-4)]GlcNAc(b1-2)Man(a1-6)]Man(b1-4)GlcNAc(b1-4)GlcNAc
# Method in brief: as §1
# [3] = molecular target: Gal(b1-3)[Fuc(a1-4)]GlcNAc(b1-2)Man(a1-3)[Gal(b1-3)[Fuc(a1-4)]GlcNAc(b1-2)Man(a1-6)]Man(b1-4)GlcNAc(b1-4)[Fuc(a1-6)]GlcNAc
# Method in brief: as §1
# [4] = molecular target: Gal(b1-3)[Fuc(a1-4)]GlcNAc(b1-3)Gal(b1-3)[Fuc(a1-4)]GlcNAc
# Method in brief: as §1
# [5] = molecular target: Gal(b1-3)[Fuc(a1-4)]GlcNAc(b1-3)Gal(b1-4)GlcNAc
# Method in brief: as §1
# [6] = molecular target: Gal(b1-3)[Fuc(a1-4)]GlcNAc(b1-3)Gal(b1-4)[Fuc(a1-3)]GlcNAc
# Method in brief: as §1
# [7] = molecular target: Gal(b1-3)[GlcNAc(b1-6)]GalNAc
# Method in brief: as §1
# [8] = molecular target: Gal(b1-3)[Neu5Ac(a2-6)]GalNAc
# Method in brief: as §1
# [9] = molecular target: Gal(b1-3)[Neu5Ac(a2-6)]GlcNAc(b1-6)Gal(b1-4)Glc
# Method in brief: as §1
# [10] = molecular target: Gal(b1-3)[Neu5Ac(b2-6)]GalNAc
# Method in brief: as §1
# [11] = molecular target: Gal(b1-4)GalNAc(a1-3)[Fuc(a1-2)]Gal(b1-4)GlcNAc
# Method in brief: as §1
# [12] = molecular target: Gal(b1-4)GalNAc(b1-3)[Fuc(a1-2)]Gal(b1-4)GlcNAc
# Method in brief: as §1
# [13] = molecular target: Gal(b1-4)Glc
# Method in brief: as §1
# [14] = molecular target: Gal(b1-4)Glc6S
# Method in brief: as §1
# [15] = molecular target: Gal(b1-4)GlcNAc
# Method in brief: as §1
# [16] = molecular target: Gal(b1-4)GlcNAc(a1-6)Gal(b1-4)GlcNAc
# Method in brief: as §1
# [17] = molecular target: Gal(b1-4)GlcNAc(b1-2)Man(a1-3)Man(b1-4)GlcNAc(b1-4)GlcNAc
# Method in brief: as §1
# [18] = molecular target: Gal(b1-4)GlcNAc(b1-2)Man(a1-3)[Gal(b1-4)GlcNAc(b1-2)Man(a1-6)]Man(b1-4)GlcNAc(b1-4)GlcNAc
# Method in brief: as §1
# [19] = molecular target: Gal(b1-4)GlcNAc(b1-2)Man(a1-3)[Gal(b1-4)GlcNAc(b1-2)Man(a1-6)]Man(b1-4)GlcNAc(b1-4)[Fuc(a1-6)]GlcNAc
# Method in brief: as §1
# [20] = molecular target: Gal(b1-4)GlcNAc(b1-2)Man(a1-3)[GlcNAc(b1-2)Man(a1-6)]Man(b1-4)GlcNAc(b1-4)GlcNAc
# Method in brief: as §1
# [21] = molecular target: Gal(b1-4)GlcNAc(b1-2)Man(a1-3)[Man(a1-6)]Man(b1-4)GlcNAc(b1-4)GlcNAc
# Method in brief: as §1
# [22] = molecular target: Gal(b1-4)GlcNAc(b1-2)Man(a1-6)Man(b1-4)GlcNAc(b1-4)GlcNAc
# Method in brief: as §1
# [23] = molecular target: Gal(b1-4)GlcNAc(b1-2)Man(a1-6)[GlcNAc(b1-2)Man(a1-3)]Man(b1-4)GlcNAc(b1-4)GlcNAc
# Method in brief: as §1
# [24] = molecular target: Gal(b1-4)GlcNAc(b1-2)Man(a1-6)[Man(a1-3)]Man(b1-4)GlcNAc(b1-4)GlcNAc
# Method in brief: as §1
# [25] = molecular target: Gal(b1-4)GlcNAc(b1-2)[Gal(b1-4)GlcNAc(b1-4)]Man(a1-3)[Gal(b1-4)GlcNAc(b1-2)Man(a1-6)]Man(b1-4)GlcNAc(b1-4)GlcNAc
# Method in brief: as §1
# [26] = molecular target: Gal(b1-4)GlcNAc(b1-2)[Gal(b1-4)GlcNAc(b1-4)]Man(a1-3)[Gal(b1-4)GlcNAc(b1-2)[Gal(b1-4)GlcNAc(b1-6)]Man(a1-6)]Man(b1-4)GlcNAc(b1-4)GlcNAc
# Method in brief: as §1
# [27] = molecular target: Gal(b1-4)GlcNAc(b1-3)Gal(b1-3)GlcNAc
# Method in brief: as §1
# [28] = molecular target: Gal(b1-4)GlcNAc(b1-3)Gal(b1-4)Glc
# Method in brief: as §1
# [29] = molecular target: Gal(b1-4)GlcNAc(b1-3)Gal(b1-4)GlcNAc
# Method in brief: as §1
# [30] = molecular target: Gal(b1-4)GlcNAc(b1-3)Gal(b1-4)GlcNAc(b1-3)Gal(b1-4)GlcNAc
# Method in brief: as §1
# [31] = molecular target: Gal(b1-4)GlcNAc(b1-3)Gal(b1-4)[Fuc(a1-3)]GlcNAc(b1-3)Gal(b1-4)[Fuc(a1-3)]GlcNAc
# Method in brief: as §1
# [32] = molecular target: Gal(b1-4)GlcNAc(b1-3)GalNAc
# Method in brief: as §1
# [33] = molecular target: Gal(b1-4)GlcNAc(b1-3)[Gal(b1-4)GlcNAc(b1-6)]Gal(b1-4)GlcNAc
# Method in brief: as §1
# [34] = molecular target: Gal(b1-4)GlcNAc(b1-3)[Gal(b1-4)GlcNAc(b1-6)]GalNAc
# Method in brief: as §1
# [35] = molecular target: Gal(b1-4)GlcNAc(b1-3)[GlcNAc(b1-6)]Gal(b1-4)GlcNAc
# Method in brief: as §1
# [36] = molecular target: Gal(b1-4)GlcNAc(b1-6)Gal(b1-4)GlcNAc
# Method in brief: as §1
# [37] = molecular target: Gal(b1-4)GlcNAc(b1-6)GalNAc
# Method in brief: as §1
binder,measurement,setting,value
B1,glycan array binding signal (z-score),[1],0.01
same,glycan array binding signal (z-score),[2],0.126
same,glycan array binding signal (z-score),[3],-0.533
same,glycan array binding signal (z-score),[4],-0.41
same,glycan array binding signal (z-score),[5],-0.077
same,glycan array binding signal (z-score),[6],-0.061
same,glycan array binding signal (z-score),[7],-0.291
same,glycan array binding signal (z-score),[8],-0.491
same,glycan array binding signal (z-score),[9],-0.087
same,glycan array binding signal (z-score),[10],0.318
same,glycan array binding signal (z-score),[11],-0.228
same,glycan array binding signal (z-score),[12],0.211
same,glycan array binding signal (z-score),[13],-0.44
same,glycan array binding signal (z-score),[14],-0.304
same,glycan array binding signal (z-score),[15],-0.501
same,glycan array binding signal (z-score),[16],-0.23
same,glycan array binding signal (z-score),[17],-0.23
same,glycan array binding signal (z-score),[18],-0.335
same,glycan array binding signal (z-score),[19],0.616
same,glycan array binding signal (z-score),[20],-0.184
same,glycan array binding signal (z-score),[21],-0.158
same,glycan array binding signal (z-score),[22],0.039
same,glycan array binding signal (z-score),[23],0.359
same,glycan array binding signal (z-score),[24],-0.105
same,glycan array binding signal (z-score),[25],0.471
same,glycan array binding signal (z-score),[26],0.304
same,glycan array binding signal (z-score),[27],0.046
same,glycan array binding signal (z-score),[28],-0.485
same,glycan array binding signal (z-score),[29],0.013
same,glycan array binding signal (z-score),[30],-0.416
same,glycan array binding signal (z-score),[31],0.858
same,glycan array binding signal (z-score),[32],-0.162
same,glycan array binding signal (z-score),[33],-0.392
same,glycan array binding signal (z-score),[34],-0.475
same,glycan array binding signal (z-score),[35],-0.204
same,glycan array binding signal (z-score),[36],-0.066
same,glycan array binding signal (z-score),[37],-0.206

# Reference: the supplement of paper PMC8728848
